# Measured values from the supplement of paper PMC10369915.
# The other results are listed elsewhere or left out. Rule as the data show it: active = 3.2 or more and inactive = the rest. Most of these values are background signal.
# B1: PLD2_Y578_T577I (peptide)
# chain: YKTPIYPYLLP
# B2: PLD2_Y578_T577I_YF (peptide)
# chain: FKTPIYPFLLP
# B3: PLD2_Y578_YF (peptide)
# chain: FKTPTYPFLLP
# B4: PLD2_Y580 (peptide)
# chain: TPTYPYLLPKS
# B5: PLD2_Y580_T577I (peptide)
# chain: TPIYPYLLPKS
# B6: PLD2_Y580_T577I_YF (peptide)
# chain: TPIFPYLLPKS
# B7: PLD2_Y580_YF (peptide)
# chain: TPTFPYLLPKS
# B8: PLEC_Y2967 (peptide)
# chain: PVDVAYRRGYF
# B9: PLEC_Y2971_R2969H (peptide)
# chain: AYRHGYFDEEM
# B10: PLEC_Y2971_R2969H_YF (peptide)
# chain: AFRHGYFDEEM
# B11: PLEKHA2_Y185_I186N (peptide)
# chain: RRSQSYNPTSG
# B12: PLEKHA7_Y243_L241I (peptide)
# chain: MRAIIYNSSTA
# B13: PLEKHG2_Y489_P484L (peptide)
# chain: LVKDPYVMFPQ
# B14: PLK3_Y615 (peptide)
# chain: RSACTYLASHL
# B15: PLOD1_Y675_G678R (peptide)
# chain: RVGVDYEGRGC
# B16: PLP1_Y207_D203V (peptide)
# chain: AVARMYGVLPW
# B17: PLP1_Y207_L210H (peptide)
# chain: ADARMYGVHPW
# B18: PLP1_Y207_Y207C (peptide)
# chain: ADARMCGVLPW
# B19: PLP1_Y50_L46R_YF (peptide)
# chain: KRIETYFSKNF
# Target: SHP2 C-SH2 domain E139D
# Experiment: enrichment score (SH2-bound / input frequency) (ratio); bacterial display of known human phosphotyrosine sites (pTyr-Var adds point mutants) read by sequencing; higher = stronger binding; tyrosines were phosphorylated by kinases first
# Conditions: peptide library: pTyr-Var
# 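Also: displayed peptides selected on beads carrying the immobilized SH2 domain, with library peptides lacking any tyrosine serving as negative controls.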
row,Binder,enrichment score
1,B1,inactive: 1.34
2,B2,inactive: 1.22
3,B3,inactive: 1.21
4,B4,inactive: 0.973
5,B5,inactive: 1.14
6,B6,inactive: 1.45
7,B7,inactive: 1.52
8,B8,inactive: 0.403
9,B9,inactive: 1.02
10,B10,inactive: 1.07
11,B11,inactive: 0.431
12,B12,inactive: 0.896
13,B13,inactive: 1.04
14,B14,inactive: 1.24
15,B15,inactive: 0.512
16,B16,inactive: 0.924
17,B17,inactive: 0.927
18,B18,inactive: 0.766
19,B19,inactive: 0.685

# Target: SHP2 C-SH2 domain wild-type
# Experiment: as above
# Conditions: peptide library: pTyr-Var
row,Binder,enrichment score
1,B1,inactive: 1.3
2,B2,inactive: 1.43
3,B3,inactive: 1.1
4,B4,inactive: 0.795
5,B5,inactive: 1.12
6,B6,inactive: 0.882
7,B7,inactive: 0.865
8,B8,inactive: 0.538
9,B9,inactive: 0.726
10,B10,inactive: 0.726
11,B11,inactive: 0.274
12,B12,inactive: 1.01
13,B13,inactive: 1.24
14,B14,inactive: 0.951
15,B15,inactive: 0.612
16,B16,inactive: 0.745
17,B17,inactive: 0.821
18,B18,inactive: 0.898
19,B19,inactive: 0.628

# Target: SHP2 N-SH2 domain L43F
# Experiment: as above
# Conditions: peptide library: pTyr-Var
row,Binder,enrichment score
1,B1,inactive: 1.29
2,B2,inactive: 1.61
3,B3,inactive: 1.2
4,B4,inactive: 0.728
5,B5,inactive: 1.02
6,B6,inactive: 0.623
7,B7,inactive: 0.996
8,B8,inactive: 0.371
9,B9,inactive: 0.801
10,B10,inactive: 1.05
11,B11,inactive: 0.153
12,B12,inactive: 1.2
13,B13,inactive: 1.63
14,B14,inactive: 1.13
15,B15,inactive: 0.621
16,B16,inactive: 0.534
17,B17,inactive: 0.707
18,B18,inactive: 0.847
19,B19,inactive: 0.618

# Target: SHP2 N-SH2 domain T42A
# Experiment: as above
# Conditions: peptide library: pTyr-Var
row,Binder,enrichment score
1,B1,inactive: 1.01
2,B2,inactive: 1.62
3,B3,inactive: 1.28
4,B4,inactive: 0.714
5,B5,inactive: 0.862
6,B6,inactive: 1.3
7,B7,inactive: 1.09
8,B8,inactive: 0.353
9,B9,inactive: 0.648
10,B10,inactive: 0.662
11,B11,inactive: 0.302
12,B12,inactive: 0.751
13,B13,inactive: 1.03
14,B14,inactive: 0.868
15,B15,inactive: 0.433
16,B16,inactive: 0.638
17,B17,inactive: 0.633
18,B18,inactive: 0.69
19,B19,inactive: 0.526

# Target: SHP2 N-SH2 domain T52S
# Experiment: as above
# Conditions: peptide library: pTyr-Var
row,Binder,enrichment score
1,B1,inactive: 1.1
2,B2,inactive: 1.47
3,B3,inactive: 1.18
4,B4,inactive: 0.726
5,B5,inactive: 1.05
6,B6,inactive: 1.35
7,B7,inactive: 1.07
8,B8,inactive: 0.237
9,B9,inactive: 0.614
10,B10,inactive: 0.827
11,B11,inactive: 0.0967
12,B12,inactive: 1.05
13,B13,inactive: 1.4
14,B14,inactive: 0.922
15,B15,inactive: 0.581
16,B16,inactive: 0.606
17,B17,inactive: 0.803
18,B18,inactive: 0.676
19,B19,inactive: 0.607

# Target: SHP2 N-SH2 domain wild-type
# Experiment: as above
# Conditions: peptide library: pTyr-Var
row,Binder,enrichment score
1,B1,inactive: 1.23
2,B2,inactive: 1.48
3,B3,inactive: 1.02
4,B4,inactive: 0.625
5,B5,inactive: 0.91
6,B6,inactive: 1
7,B7,inactive: 1.13
8,B8,inactive: 0.369
9,B9,inactive: 0.694
10,B10,inactive: 1.02
11,B11,inactive: 0.404
12,B12,inactive: 0.936
13,B13,inactive: 1.29
14,B14,inactive: 1.55
15,B15,inactive: 0.52
16,B16,inactive: 0.874
17,B17,inactive: 1.12
18,B18,inactive: 1.05
19,B19,inactive: 0.739
